In PMC5157838 (Analytical chemistry, 2015):

Target: T1, recombinant human C-reactive protein, purified from Escherichia coli (human, UniProt P02741 19-224)
T1 sequence: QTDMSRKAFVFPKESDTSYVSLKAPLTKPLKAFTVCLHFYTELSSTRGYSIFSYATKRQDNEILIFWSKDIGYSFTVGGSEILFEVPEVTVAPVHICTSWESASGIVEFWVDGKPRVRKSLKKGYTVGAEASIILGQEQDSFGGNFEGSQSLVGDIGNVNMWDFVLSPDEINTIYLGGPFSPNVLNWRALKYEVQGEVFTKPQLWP
Assay: native MS

B1: Serum amyloid P component, purified from human serum (natural protein)
chain: not shown
modifications: glycosylated at Asn-32
  binding result: binds
